Reference: the supplement of paper PMC10369915
The other results are listed elsewhere or left out. Rule as the data show it: active = 3.2 or more and inactive = the rest. Most of these values are background signal.
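Also: displayed peptides selected on beads carrying the immobilized SH2 domain, with library peptides lacking any tyrosine serving as negative controls.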

The binders below were run against SHP2 C-SH2 domain E139D (assay: enrichment score (SH2-bound / input frequency) (ratio); bacterial display of known human phosphotyrosine sites (pTyr-Var adds point mutants) read by sequencing; higher = stronger binding; tyrosines were phosphorylated by kinases first). Settings: peptide library: pTyr-Var.
TKAEKYVNKPK [PLCG1_Y991_A995P] was tested, and the enrichment score was inactive: 0.659. NGRTGYVLQPE [PLCG2_Y1036] was tested, and the enrichment score was inactive: 0.714. NGRTGDVLQPE [PLCG2_Y1036_Y1036D] was tested, and the enrichment score was inactive: 0.848. For DASAVYLRDFQ [PLCG2_Y242_H244R], the enrichment score was inactive: 0.838. For KYLENYLNRLL [PLD2_Y169], the enrichment score was active: 3.61. For KYLENYLNCLL [PLD2_Y169_R172C], the enrichment score was inactive: 2.81. TTKAKYKTPIY [PLD2_Y573_T577I] was tested, and the enrichment score was inactive: 0.828. With PVDVAYRHGYF [PLEC_Y2967_R2969H] the enrichment score was inactive: 0.99. AYRRGYFDEEM [PLEC_Y2971] was tested, and the enrichment score was inactive: 0.339. AFRRGYFDEEM [PLEC_Y2971_YF] was tested, and the enrichment score was inactive: 0.301. In the case of RRSQSYIPTSG [PLEKHA2_Y185], the enrichment score is reported as inactive: 0.244. For MRALIYNSSTA [PLEKHA7_Y243], the enrichment score was inactive: 0.734. For MRALIYNSSTV [PLEKHA7_Y243_A248V], the enrichment score was inactive: 0.703. For PVKDPYVMFPQ [PLEKHG2_Y489], the enrichment score was inactive: 0.954. For DRTVNYVLKCR [PLEKHG4_Y1068], the enrichment score was inactive: 0.572. In the case of DGTESYHTVSS [PLK1_Y462_L463H], the enrichment score is reported as inactive: 0.384. With RSACTYLAPHL [PLK3_Y615_S618P] the enrichment score was inactive: 0.956. For ADARMYGVLPW [PLP1_Y207], the enrichment score was inactive: 0.877. In the case of AEARMYGVLPW [PLP1_Y207_D203E], the enrichment score is reported as inactive: 0.911.

Each binder was assayed against SHP2 C-SH2 domain wild-type in the same assay as above. Settings: peptide library: pTyr-Var.
For TKAEKYVNKPK [PLCG1_Y991_A995P], the enrichment score was inactive: 1. For NGRTGYVLQPE [PLCG2_Y1036], the enrichment score was inactive: 0.598. In the case of NGRTGDVLQPE [PLCG2_Y1036_Y1036D], the enrichment score is reported as inactive: 0.799. With DASAVYLRDFQ [PLCG2_Y242_H244R] the enrichment score was inactive: 0.892. In the case of KYLENYLNRLL [PLD2_Y169], the enrichment score is reported as active: 3.78. In the case of KYLENYLNCLL [PLD2_Y169_R172C], the enrichment score is reported as inactive: 3.12. With TTKAKYKTPIY [PLD2_Y573_T577I] the enrichment score was inactive: 0.78. PVDVAYRHGYF [PLEC_Y2967_R2969H] was tested, and the enrichment score was inactive: 0.821. In the case of AYRRGYFDEEM [PLEC_Y2971], the enrichment score is reported as inactive: 0.289. For AFRRGYFDEEM [PLEC_Y2971_YF], the enrichment score was inactive: 0.315. RRSQSYIPTSG [PLEKHA2_Y185] was tested, and the enrichment score was inactive: 0.287. For MRALIYNSSTA [PLEKHA7_Y243], the enrichment score was inactive: 0.746. With MRALIYNSSTV [PLEKHA7_Y243_A248V] the enrichment score was inactive: 0.716. PVKDPYVMFPQ [PLEKHG2_Y489] was tested, and the enrichment score was inactive: 0.997. For DRTVNYVLKCR [PLEKHG4_Y1068], the enrichment score was inactive: 0.846. DGTESYHTVSS [PLK1_Y462_L463H] was tested, and the enrichment score was inactive: 0.346. RSACTYLAPHL [PLK3_Y615_S618P] was tested, and the enrichment score was inactive: 1.39. In the case of ADARMYGVLPW [PLP1_Y207], the enrichment score is reported as inactive: 0.684. AEARMYGVLPW [PLP1_Y207_D203E] was tested, and the enrichment score was inactive: 0.877.

The binders below were run against SHP2 N-SH2 domain L43F in the same assay as above. Settings: peptide library: pTyr-Var.
In the case of TKAEKYVNKPK [PLCG1_Y991_A995P], the enrichment score is reported as inactive: 0.828. With NGRTGYVLQPE [PLCG2_Y1036] the enrichment score was inactive: 0.77. NGRTGDVLQPE [PLCG2_Y1036_Y1036D] was tested, and the enrichment score was inactive: 0.78. DASAVYLRDFQ [PLCG2_Y242_H244R] was tested, and the enrichment score was inactive: 0.742. KYLENYLNRLL [PLD2_Y169] was tested, and the enrichment score was active: 3.47. KYLENYLNCLL [PLD2_Y169_R172C] was tested, and the enrichment score was active: 3.22. For TTKAKYKTPIY [PLD2_Y573_T577I], the enrichment score was inactive: 0.822. For PVDVAYRHGYF [PLEC_Y2967_R2969H], the enrichment score was inactive: 0.913. In the case of AYRRGYFDEEM [PLEC_Y2971], the enrichment score is reported as inactive: 0.317. AFRRGYFDEEM [PLEC_Y2971_YF] was tested, and the enrichment score was inactive: 0.326. For RRSQSYIPTSG [PLEKHA2_Y185], the enrichment score was inactive: 0.285. In the case of MRALIYNSSTA [PLEKHA7_Y243], the enrichment score is reported as inactive: 0.601. MRALIYNSSTV [PLEKHA7_Y243_A248V] was tested, and the enrichment score was inactive: 0.707. In the case of PVKDPYVMFPQ [PLEKHG2_Y489], the enrichment score is reported as inactive: 1.12. With DRTVNYVLKCR [PLEKHG4_Y1068] the enrichment score was inactive: 0.659. In the case of DGTESYHTVSS [PLK1_Y462_L463H], the enrichment score is reported as inactive: 0.585. For RSACTYLAPHL [PLK3_Y615_S618P], the enrichment score was inactive: 1.23. For ADARMYGVLPW [PLP1_Y207], the enrichment score was inactive: 0.751. In the case of AEARMYGVLPW [PLP1_Y207_D203E], the enrichment score is reported as inactive: 0.911.

Each binder was assayed against SHP2 N-SH2 domain T42A in the same assay as above. Settings: peptide library: pTyr-Var.
For TKAEKYVNKPK [PLCG1_Y991_A995P], the enrichment score was inactive: 0.611. For NGRTGYVLQPE [PLCG2_Y1036], the enrichment score was inactive: 0.627. For NGRTGDVLQPE [PLCG2_Y1036_Y1036D], the enrichment score was inactive: 0.519. With DASAVYLRDFQ [PLCG2_Y242_H244R] the enrichment score was inactive: 0.64. In the case of KYLENYLNRLL [PLD2_Y169], the enrichment score is reported as active: 3.24. KYLENYLNCLL [PLD2_Y169_R172C] was tested, and the enrichment score was inactive: 2.96. For TTKAKYKTPIY [PLD2_Y573_T577I], the enrichment score was inactive: 0.584. With PVDVAYRHGYF [PLEC_Y2967_R2969H] the enrichment score was inactive: 0.738. With AYRRGYFDEEM [PLEC_Y2971] the enrichment score was inactive: 0.304. AFRRGYFDEEM [PLEC_Y2971_YF] was tested, and the enrichment score was inactive: 0.342. For RRSQSYIPTSG [PLEKHA2_Y185], the enrichment score was inactive: 0.312. For MRALIYNSSTA [PLEKHA7_Y243], the enrichment score was inactive: 0.558. In the case of MRALIYNSSTV [PLEKHA7_Y243_A248V], the enrichment score is reported as inactive: 0.52. In the case of PVKDPYVMFPQ [PLEKHG2_Y489], the enrichment score is reported as inactive: 1.15. In the case of DRTVNYVLKCR [PLEKHG4_Y1068], the enrichment score is reported as inactive: 0.737. DGTESYHTVSS [PLK1_Y462_L463H] was tested, and the enrichment score was inactive: 0.291. In the case of RSACTYLAPHL [PLK3_Y615_S618P], the enrichment score is reported as inactive: 1.42. With ADARMYGVLPW [PLP1_Y207] the enrichment score was inactive: 0.745. AEARMYGVLPW [PLP1_Y207_D203E] was tested, and the enrichment score was inactive: 0.831.

These binders were tested against SHP2 N-SH2 domain T52S in the same assay as above. Settings: peptide library: pTyr-Var.
For TKAEKYVNKPK [PLCG1_Y991_A995P], the enrichment score was inactive: 0.62. In the case of NGRTGYVLQPE [PLCG2_Y1036], the enrichment score is reported as inactive: 0.746. NGRTGDVLQPE [PLCG2_Y1036_Y1036D] was tested, and the enrichment score was inactive: 0.623. DASAVYLRDFQ [PLCG2_Y242_H244R] was tested, and the enrichment score was inactive: 0.707. In the case of KYLENYLNRLL [PLD2_Y169], the enrichment score is reported as inactive: 3.03. With KYLENYLNCLL [PLD2_Y169_R172C] the enrichment score was inactive: 2.72. TTKAKYKTPIY [PLD2_Y573_T577I] was tested, and the enrichment score was inactive: 0.628. For PVDVAYRHGYF [PLEC_Y2967_R2969H], the enrichment score was inactive: 0.774. For AYRRGYFDEEM [PLEC_Y2971], the enrichment score was inactive: 0.4. With AFRRGYFDEEM [PLEC_Y2971_YF] the enrichment score was inactive: 0.369. RRSQSYIPTSG [PLEKHA2_Y185] was tested, and the enrichment score was inactive: 0.224. MRALIYNSSTA [PLEKHA7_Y243] was tested, and the enrichment score was inactive: 0.768. With MRALIYNSSTV [PLEKHA7_Y243_A248V] the enrichment score was inactive: 0.634. In the case of PVKDPYVMFPQ [PLEKHG2_Y489], the enrichment score is reported as inactive: 0.752. For DRTVNYVLKCR [PLEKHG4_Y1068], the enrichment score was inactive: 0.563. In the case of DGTESYHTVSS [PLK1_Y462_L463H], the enrichment score is reported as inactive: 0.649. With RSACTYLAPHL [PLK3_Y615_S618P] the enrichment score was inactive: 1.1. ADARMYGVLPW [PLP1_Y207] was tested, and the enrichment score was inactive: 0.817. With AEARMYGVLPW [PLP1_Y207_D203E] the enrichment score was inactive: 1.08.

The binders below were run against SHP2 N-SH2 domain wild-type in the same assay as above. Settings: peptide library: pTyr-Var.
In the case of TKAEKYVNKPK [PLCG1_Y991_A995P], the enrichment score is reported as inactive: 0.865. NGRTGYVLQPE [PLCG2_Y1036] was tested, and the enrichment score was inactive: 0.754. For NGRTGDVLQPE [PLCG2_Y1036_Y1036D], the enrichment score was inactive: 0.784. In the case of DASAVYLRDFQ [PLCG2_Y242_H244R], the enrichment score is reported as inactive: 0.67. KYLENYLNRLL [PLD2_Y169] was tested, and the enrichment score was active: 3.35. In the case of KYLENYLNCLL [PLD2_Y169_R172C], the enrichment score is reported as inactive: 2.93. In the case of TTKAKYKTPIY [PLD2_Y573_T577I], the enrichment score is reported as inactive: 1.04. With PVDVAYRHGYF [PLEC_Y2967_R2969H] the enrichment score was inactive: 1.42. With AYRRGYFDEEM [PLEC_Y2971] the enrichment score was inactive: 0.399. In the case of AFRRGYFDEEM [PLEC_Y2971_YF], the enrichment score is reported as inactive: 0.539. With RRSQSYIPTSG [PLEKHA2_Y185] the enrichment score was inactive: 0.271. With MRALIYNSSTA [PLEKHA7_Y243] the enrichment score was inactive: 0.999. With MRALIYNSSTV [PLEKHA7_Y243_A248V] the enrichment score was inactive: 0.796. In the case of PVKDPYVMFPQ [PLEKHG2_Y489], the enrichment score is reported as inactive: 1.06. DRTVNYVLKCR [PLEKHG4_Y1068] was tested, and the enrichment score was inactive: 0.897. With DGTESYHTVSS [PLK1_Y462_L463H] the enrichment score was inactive: 0.68. For RSACTYLAPHL [PLK3_Y615_S618P], the enrichment score was inactive: 1.24. In the case of ADARMYGVLPW [PLP1_Y207], the enrichment score is reported as inactive: 1.01. For AEARMYGVLPW [PLP1_Y207_D203E], the enrichment score was inactive: 1.
